From the BET-seq Pho4 binding data (Le et al. 2018)
Some of the results follow. These are noisy estimates, calculated here from bound and input reads.

The sequences below were run against T1, Pho4 (S. cerevisiae) (UniProt P07270) (assay: relative binding free energy (BET-seq); higher = weaker binding). Conditions: reference: library average.
T1 sequence: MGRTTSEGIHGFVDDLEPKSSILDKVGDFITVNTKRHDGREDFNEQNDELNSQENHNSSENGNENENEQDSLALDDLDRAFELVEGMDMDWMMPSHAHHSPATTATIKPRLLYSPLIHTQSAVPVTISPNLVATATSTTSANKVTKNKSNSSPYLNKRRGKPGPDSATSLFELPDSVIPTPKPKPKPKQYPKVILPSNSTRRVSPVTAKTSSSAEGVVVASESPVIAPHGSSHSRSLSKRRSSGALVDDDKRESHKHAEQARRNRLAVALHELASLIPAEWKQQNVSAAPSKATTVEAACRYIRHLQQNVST

Row | Sequence | relative binding free energy [kcal/mol]
1 | TCGGTCACGTGTTGTC | 0.12
2 | TTTATCACGTGCTATG | 0
3 | TGTATCACGTGCTGGG | 0.02
4 | TTGTTCACGTGAGGCT | 0.34
5 | ATAGTCACGTGGGTTG | -0.06
6 | TAGTGCACGTGATCAG | 0.04
7 | AGGTACACGTGGAGCT | 0.06
8 | GGGGGCACGTGACGGA | 0.03
9 | GTGTGCACGTGCGTAA | -0.14
10 | CGGGGCACGTGAGGAC | 0.08
11 | GGGGGCACGTGAAATA | 0.36
12 | TTGGGCACGTGGCAGC | -0.17
13 | TTGGCCACGTGACGTG | 0.05
14 | CAGCGCACGTGAGGTG | 0.01
15 | ATGCGCACGTGGGGCG | -0.29
16 | GGCTCCACGTGGTTTT | 0.13
17 | AGTTGCACGTGTCGTT | 0.03
18 | TCATGCACGTGAATGG | 0.19
19 | TTTGACACGTGGCAGT | -0.08
20 | AGTGGCACGTGGGCCT | -0.3
21 | TGGTGCACGTGCTGAA | -0.14
22 | GTCTACACGTGCGGGT | 0.22
23 | TAGTTCACGTGTGGTA | 0.24
24 | TGGTTCACGTGAGACG | 0.48
25 | GTTTTCACGTGACTGG | 0.45

Row | Sequence | relative binding free energy [kcal/mol]
26 | AGGGCCACGTGGAAGG | 0.1
27 | TTCTTCACGTGCAGTT | 0.27
28 | AGTGGCACGTGTGTGC | -0.13
29 | GATCTCACGTGGTGGA | 0.27
30 | CGTATCACGTGTATTT | 0.17
31 | TTGGACACGTGGGAGA | -0.03
32 | TGGTACACGTGAAACG | 0.43
33 | TTGGCCACGTGGCGCG | -0.09
34 | AAGGGCACGTGGGGCT | -0.2
35 | GAGTTCACGTGTACGG | 0.32
36 | GGGAGCACGTGATGGA | 0.07
37 | GAATGCACGTGATTGG | 0.26
38 | TATGGCACGTGGAGTG | -0.05
39 | GCGTGCACGTGCAGGT | 0.1
40 | TAGGGCACGTGGGGAA | -0.31
41 | TGGCTCACGTGCGGTA | 0.08
42 | AATAGCACGTGAGCGT | 0.24
43 | GGCCACACGTGCGGGG | 0.04
44 | TTCGTCACGTGATTTG | 0.17
45 | TTGATCACGTGGGATT | 0.06
46 | GATAGCACGTGTATGG | -0.04
47 | ATTTACACGTGTCGGC | 0.29
48 | ATGTACACGTGGGCTT | 0
49 | GTAGACACGTGGAGGA | -0.08
50 | TCTCTCACGTGGTAGG | 0.27

Row | Sequence | relative binding free energy [kcal/mol]
51 | TAAATCACGTGAGTTT | 0.31
52 | ATATTCACGTGGTGTA | 0.12
53 | TTCAACACGTGGTGGA | 0.08
54 | AGAGGCACGTGAATGT | 0.06
55 | GGCGGCACGTGAGGAG | 0.14
56 | TAGACCACGTGGGTGT | -0.33
57 | GTTTTCACGTGAGGAC | 0.46
58 | TTTAGCACGTGGATTA | 0.12
59 | ATGAGCACGTGGTGAT | -0.03
60 | AGTGACACGTGGGTGC | -0.13
61 | TATAACACGTGTGTTA | -0.07
62 | TAGGGCACGTGCGCGA | -0.29
63 | GGAACCACGTGTGGTG | -0.02
64 | TATCTCACGTGTATGT | 0.09
65 | TATGCCACGTGGATGT | -0.1
66 | GGGGTCACGTGTGCTC | -0.01
67 | TTACACACGTGGTTAT | -0.04
68 | CGTGGCACGTGCTGGT | -0.19
69 | GGCTACACGTGTAGTG | 0
70 | TTTTCCACGTGTTAGA | 0.24
71 | AATGTCACGTGCGTTA | -0.05
72 | TGCGGCACGTGTCGTC | 0.12
73 | GTACGCACGTGATGTA | 0.13
74 | GAGGTCACGTGGAGCG | 0.3
75 | TTGACCACGTGTGGTT | -0.08

Row | Sequence | relative binding free energy [kcal/mol]
76 | TTCGTCACGTGTGCGT | 0.04
77 | CATGGCACGTGAAGTG | 0.19
78 | AATATCACGTGTTTGC | 0.18
79 | AGATCCACGTGCGGGT | 0.06
80 | TTTTGCACGTGAAAAT | 0.26
81 | GGAGTCACGTGGCAGA | 0.13
82 | TGGTGCACGTGAGCTA | 0.12
83 | GATTTCACGTGTGCTG | 0.15
84 | AGCCGCACGTGGGAGT | -0.06
85 | TACGTCACGTGGGGAG | 0.02
86 | GTTGCCACGTGGGGCG | -0.14
87 | GGCGTCACGTGGGTGG | 0.03
88 | TTGCTCACGTGGGTCG | 0.14
89 | ATGATCACGTGGTGTG | 0.12
90 | ATTGGCACGTGAAGAA | 0.16
91 | ATAAGCACGTGGTGGT | -0.22
92 | TAGTCCACGTGATGTG | -0.01
93 | GTTTACACGTGTATAG | 0.06
94 | GTTAGCACGTGGTCGC | -0.12
95 | GTTATCACGTGTTTAT | 0.19
96 | TGAAGCACGTGTTTGT | -0.07
97 | TGGTTCACGTGTTCAT | 0.32
98 | ATAGTCACGTGGGCTT | 0.04
99 | GAGGTCACGTGAGTTT | 0.59
100 | CTTTTCACGTGGTTCG | 0.1

Row | Sequence | relative binding free energy [kcal/mol]
101 | GAAAGCACGTGGTTAA | 0.03
102 | GTATACACGTGGGGCA | -0.18
103 | GTTGACACGTGGTCAG | 0.05
104 | GAAGTCACGTGGAGTA | 0.31
105 | AGGAACACGTGGGTAA | -0.08
106 | GGAGCCACGTGGTTTG | 0
107 | TTGGTCACGTGTTCTA | 0.08
108 | GATGACACGTGGGCGT | 0
109 | GATGACACGTGTGGCG | 0.14
110 | GATATCACGTGGTATG | 0.14
111 | GAATGCACGTGATTGT | 0.26
112 | TTTTCCACGTGGTTAA | 0
113 | GGCATCACGTGTGGAA | 0.21
114 | TTGCTCACGTGGAGGT | 0.14
115 | AGCATCACGTGTGGAG | 0.14
116 | AGACTCACGTGTTGGG | 0.23
117 | ATGGGCACGTGATTGG | 0.04
118 | GCTGTCACGTGCAGTT | 0.18
119 | TTCTGCACGTGATTTA | -0.09
120 | TCTTGCACGTGATTTT | 0.06
121 | GAAAGCACGTGTTGAG | -0.02
122 | GGAGTCACGTGTGAAT | 0.26
123 | TGTATCACGTGTCGAG | 0.26
124 | CTGTACACGTGGTGCT | -0.05
125 | ATGCTCACGTGCGTGT | 0.17

Row | Sequence | relative binding free energy [kcal/mol]
126 | TCGAGCACGTGGTATT | -0.15
127 | TTTTGCACGTGTTGCT | 0.04
128 | TGAGACACGTGAGTAG | 0.31
129 | GGGATCACGTGTTGCG | 0.25
130 | GGGCTCACGTGCAGGT | 0.35
131 | TTTTCCACGTGGTTGT | 0.08
132 | GTGCTCACGTGTATAG | 0.16
133 | CTCAGCACGTGTGGGT | -0.02
134 | AGGATCACGTGGGAAG | -0.06
135 | GGTGGCACGTGATGCG | 0.1
136 | GGTTACACGTGAAGTA | 0.34
137 | ATTTGCACGTGTGCAG | -0.05
138 | GTTTACACGTGAGGGA | 0.39
139 | TAAGTCACGTGGTGAG | 0.02
140 | TTGGGCACGTGACGGT | 0.12
141 | TGTTACACGTGAGATA | 0.22
142 | GGGTACACGTGAGATG | 0.32
143 | TTGATCACGTGTAATG | 0.23
144 | AGTGGCACGTGAGCGA | 0.14
145 | AAGCGCACGTGTGAGT | -0.06
146 | TAATGCACGTGTGTTG | 0
